# Assay results taken from the supplement of paper PMC10126150.
# Values marked as one replicate rest on one cluster of the flow cell; about a third of the high ones do not repeat.
# Tested on: ATP
# Assay: switch fluorescence ratio, 500 uM ATP over buffer (Cy3 cluster intensity, sum of 5 cycles each) (fold (ratio)); higher = stronger signal-on switching upon ATP binding; sequences stand for … in TCGTCGGCAGCGTCAGATGTGTATAAGAGACAGTTTTTTTTTTTTTTTTTTTTTTTTT…TC
# Settings: aptamer strand: ATP DNA aptamer (quencher-CACCTGGGGGAGTATTGCGGAGGAAGG + anchor), 100 nM annealed; ATP concentration: 500 uM; one replicate
# In short: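 Five buffer/ATP imaging cycles were run on Cy3-labelled switching-strand clusters on a modified Illumina MiSeq flow-cell, with NaOH stripping and re-annealing between cycles. In each cycle, clusters annealed to 100 nM quencher-labelled ATP aptamer were imaged in selection buffer, then after 15 min with 500 uM ATP at 22 °C. Per cluster, the fluorescence ratio is summed target-cycle over summed buffer-cycle Cy3 intensity, averaged per switch-domain sequence. Only clusters within 100-1000 RFU were kept.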
# 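Also: ATP exposure 15 min at 22 °C before imaging.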
row,Sequence,switch fluorescence ratio
1,GGGATTCCCA,0.917
2,GGGATTGAAC,1.03
3,GGGCAAATGT,1.01
4,GGGCAATATA,1.25
5,GGGCACAGGT,1.07
6,GGGCACCGT,1.02
7,GGGCACGAAA,1.03
8,GGGCAGAACT,1.02
9,GGGCAGCCCT,0.999
10,GGGCAGTCGA,0.992
11,GGGCAGTGTC,1.08
12,GGGCATGGCG,1.04
13,GGGCCAACTA,0.984
14,GGGCCATAGC,0.984
15,GGGCCATTTT,0.987
16,GGGCCTTATG,1
17,GGGCGATTTT,1.08
18,GGGCGCGTGC,0.998
19,GGGCGGATCC,0.958
20,GGGCGTAGC,0.99
21,GGGCGTCTGG,1.03
22,GGGCGTTGGT,0.959
23,GGGCTAACCG,1
24,GGGCTATATG,1.06
25,GGGCTATGTT,1
26,GGGCTCCTGG,1.01

row,Sequence,switch fluorescence ratio
1,GGGCTTAGCA,0.99
2,GGGCTTCCCG,1.23
3,GGGCTTGGAT,0.984
4,GGGGAACGCA,1.17
5,GGGGACCGGA,0.956
6,GGGGAGACGC,1.03
7,GGGGAGGCTT,0.989
8,GGGGATCAAA,1
9,GGGGATTCCG,1.1
10,GGGGATTGCG,0.952
11,GGGGCAAGGT,1.03
12,GGGGCACGTT,1.03
13,GGGGCAGAGA,0.99
14,GGGGCAGTTC,1.05
15,GGGGCCAGCG,1.1
16,GGGGCCAGTG,0.972
17,GGGGCCGGTA,1.04
18,GGGGCCGTTC,0.957
19,GGGGCGGACA,1.03
20,GGGGCTCAGG,1.08
21,GGGGCTGGTC,0.991
22,GGGGCTGGTG,0.992
23,GGGGGAGTAT,0.974
24,GGGGGCAAGG,0.977
25,GGGGGCGACC,1.03
26,GGGGGCGG,1.07

row,Sequence,switch fluorescence ratio
1,GGGGGGCGTA,1.09
2,GGGGGGTGT,1.05
3,GGGGGTCATA,0.964
4,GGGGGTCTCT,0.99
5,GGGGTAGCTC,0.963
6,GGGGTGACAC,1.04
7,GGGGTTATAT,1.01
8,GGGGTTATGC,1.05
9,GGGGTTCTCT,1.02
10,GGGGTTGTTC,0.99
11,GGGTAAAGT,1.02
12,GGGTAATGAT,1.02
13,GGGTACACGA,0.955
14,GGGTACTGAG,1.14
15,GGGTACTTGA,1.05
16,GGGTATACTA,0.972
17,GGGTATATGA,1.01
18,GGGTATGAA,0.991
19,GGGTATGTGC,1.02
20,GGGTATTCAG,0.972
21,GGGTATTCCG,0.956
22,GGGTATTTTC,1
23,GGGTCAAATT,0.953
24,GGGTCAATGA,0.988
25,GGGTCACATC,1.02
26,GGGTCAGAAG,0.961

row,Sequence,switch fluorescence ratio
1,GGGTCAGCAT,1.02
2,GGGTCCAGAT,1.03
3,GGGTCCGCCT,0.999
4,GGGTCCTACA,0.967
5,GGGTCCTATG,0.956
6,GGGTCGTTGC,0.979
7,GGGTCTCCGA,1
8,GGGTCTGAGA,0.987
9,GGGTGACTAA,1.01
10,GGGTGATCAG,0.97
11,GGGTGCTCTG,0.987
12,GGGTGCTGGT,0.961
13,GGGTGGACGT,1
14,GGGTGGAGCC,1.02
15,GGGTGGGACA,1.01
16,GGGTGTCGTG,1.03
17,GGGTGTGTAG,1.05
18,GGGTGTGTGA,1.02
19,GGGTTACTG,1.03
20,GGGTTGATG,0.974
21,GGGTTTGCGC,0.976
22,GGGTTTTAAA,1.02
23,GGTAAATCCG,1.03
24,GGTAACACGA,1.05
25,GGTAAGACTC,1.16
26,GGTAAGGCTC,0.928

row,Sequence,switch fluorescence ratio
1,GGTAATATAG,0.99
2,GGTAATCATT,0.975
3,GGTAATCTTT,0.956
4,GGTACCGGGA,0.956
5,GGTACCGTTT,1.01
6,GGTACTGC,0.988
7,GGTAGAAGCA,0.966
8,GGTAGACTAC,1.01
9,GGTAGCAATG,1.94
10,GGTAGCATGG,1.01
11,GGTAGGTA,1.05
12,GGTAGTGACA,0.981
13,GGTAGTGACG,1.04
14,GGTAGTGGTC,0.979
15,GGTAGTGTG,0.973
16,GGTATAGGGC,0.998
17,GGTATAGTAC,1.05
18,GGTATATTGT,1.01
19,GGTATCATAA,0.987
20,GGTATCGTTC,1.01
21,GGTATCTGAG,1.03
22,GGTATGTAGT,0.994
23,GGTATGTATC,0.968
24,GGTATTTATG,0.979
25,GGTCAAACGT,0.993
26,GGTCACAAGG,1

row,Sequence,switch fluorescence ratio
1,GGTCACTTA,1.03
2,GGTCAGAGCG,1.01
3,GGTCAGATTG,0.994
4,GGTCAGTCGT,1.05
5,GGTCATGGGC,1.04
6,GGTCATTCTT,1.03
7,GGTCCCAAG,1.01
8,GGTCCCCCGT,1.02
9,GGTCCCCGGG,1.16
10,GGTCCCTATG,0.988
11,GGTCCGGTCC,1.03
12,GGTCCGTTTG,1.01
13,GGTCCTATCC,0.99
14,GGTCGCATA,0.974
15,GGTCGCCGGT,1.04
16,GGTCGCCTAA,1.03
17,GGTCGGCCA,1
18,GGTCGTGTGC,1.02
19,GGTCGTTCCC,0.973
20,GGTCGTTTA,0.98
21,GGTCTAGCAT,1.02
22,GGTCTATGGG,1
23,GGTCTGGAAA,1.02
24,GGTCTGTGAC,0.979
25,GGTCTTGTTA,0.969
26,GGTGAAATCG,0.936

row,Sequence,switch fluorescence ratio
1,GGTGAAGAAT,0.999
2,GGTGAAGCAG,1
3,GGTGAAGCAT,0.996
4,GGTGAATTAT,1.24
5,GGTGACAGGA,0.978
6,GGTGACCGGT,0.963
7,GGTGACTCGA,1.02
8,GGTGAGAGCT,1.07
9,GGTGAGTCTC,0.994
10,GGTGATGCT,0.995
11,GGTGCACATT,0.998
12,GGTGCAGCAG,1.01
13,GGTGCAGCTA,0.979
14,GGTGCAGGCC,1.01
15,GGTGCAGTAA,1.01
16,GGTGCCCGTT,1.05
17,GGTGCCCTGG,1.14
18,GGTGCCGTCA,1.06
19,GGTGCGAGTC,1.03
20,GGTGCTTCAC,0.984
21,GGTGCTTGCG,1.05
22,GGTGGACAGG,0.955
23,GGTGGAGGGC,1.01
24,GGTGGGACAG,1
25,GGTGGGTTCT,1.14
26,GGTGGTCGCT,1.01

row,Sequence,switch fluorescence ratio
1,GGTGGTGGTG,1.01
2,GGTGTACAGT,1.01
3,GGTGTAGAGT,1.01
4,GGTGTAGTAA,1.03
5,GGTGTCATCG,0.955
6,GGTGTCCACA,0.995
7,GGTGTCCCTT,1.04
8,GGTGTCGACC,0.986
9,GGTGTCTT,0.975
10,GGTGTCTTA,1
11,GGTGTGGG,1.1
12,GGTGTTGC,1.06
13,GGTTAAAAAG,0.971
14,GGTTAACACT,1.04
15,GGTTAGGGT,1.05
16,GGTTATAAGC,0.976
17,GGTTCCGGAC,1.06
18,GGTTCCGGAT,0.982
19,GGTTCCTCGG,1.12
